Measured values: the supplement of paper PMC8728848
The other results are listed elsewhere or left out.

Legend:
Assay in all cases: glycan array binding signal (z-score within array); higher = stronger binding
Details in all cases: glycan notation: IUPAC condensed, linker removed
[1] = biological target: Gal(b1-4)GlcNAc(b1-3)Gal(b1-4)GlcNAc(b1-6)[Gal(b1-3)]GalNAc
Procedure, shortened: (§1)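 Negative Z-scores can be read as non-binding. The Z-score is calculated within each array and then averaged across arrays of one protein sequence at different concentrations or buffers and across linkers. Arrays, 3228 in all, were curated from the Consortium for Functional Glycomics database and kept only where the protein sequence was available.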

[2] = biological target: Gal(b1-4)GlcNAc(b1-3)Gal(b1-4)[Fuc(a1-3)]GlcNAc(b1-3)Gal(b1-4)[Fuc(a1-3)]GlcNAc
Procedure, shortened: as §1

[3] = biological target: Gal(b1-4)GlcNAc(b1-3)GalNAc
Procedure, shortened: as §1

[4] = biological target: Gal(b1-4)GlcNAc(b1-3)[Fuc(a1-3)GlcNAc(b1-6)]Gal(b1-4)Glc
Procedure, shortened: as §1

[5] = biological target: Gal(b1-4)GlcNAc(b1-3)[Gal(b1-4)GlcNAc(b1-6)]Gal(b1-4)GlcNAc
Procedure, shortened: as §1

[6] = biological target: Gal(b1-4)GlcNAc(b1-3)[GlcNAc(b1-6)]Gal(b1-4)GlcNAc
Procedure, shortened: as §1

[7] = biological target: Gal(b1-4)GlcNAc(b1-6)Gal(b1-4)GlcNAc
Procedure, shortened: as §1

[8] = biological target: Gal(b1-4)GlcNAc(b1-6)GalNAc
Procedure, shortened: as §1

[9] = biological target: Gal(b1-4)GlcNAc(b1-6)[Gal(b1-3)]GalNAc
Procedure, shortened: as §1

[10] = biological target: Gal(b1-4)GlcNAc(b1-6)[Gal(b1-4)GlcNAc(b1-3)]GalNAc
Procedure, shortened: as §1

Gal(b1-4)GlcNAc6P = biological target: Gal(b1-4)GlcNAc6P
Procedure, shortened: as §1

Gal(b1-6)Gal = biological target: Gal(b1-6)Gal
Procedure, shortened: as §1

Gal3S(b1-3)GalNAc = biological target: Gal3S(b1-3)GalNAc
Procedure, shortened: as §1

Gal3S(b1-3)GlcNAc = biological target: Gal3S(b1-3)GlcNAc
Procedure, shortened: as §1

[11] = biological target: Gal3S(b1-3)[Fuc(a1-4)]GlcNAc
Procedure, shortened: as §1

Gal3S(b1-4)Glc = biological target: Gal3S(b1-4)Glc
Procedure, shortened: as §1

Gal3S(b1-4)Glc6S = biological target: Gal3S(b1-4)Glc6S
Procedure, shortened: as §1

Gal3S(b1-4)GlcNAc = biological target: Gal3S(b1-4)GlcNAc
Procedure, shortened: as §1

[12] = biological target: Gal3S(b1-4)[Fuc(a1-3)]Glc6S
Procedure, shortened: as §1

[13] = biological target: Gal3S(b1-4)[Fuc(a1-3)]GlcNAc
Procedure, shortened: as §1

[14] = biological target: Gal3S(b1-4)[Fuc(a1-3)]GlcNAc6S
Procedure, shortened: as §1

Gal3S4S(b1-4)GlcNAc = biological target: Gal3S4S(b1-4)GlcNAc
Procedure, shortened: as §1

Gal3S6S(b1-4)GlcNAc = biological target: Gal3S6S(b1-4)GlcNAc
Procedure, shortened: as §1

Gal3S6S(b1-4)GlcNAc6S = biological target: Gal3S6S(b1-4)GlcNAc6S
Procedure, shortened: as §1

Gal4S(b1-4)GlcNAc = biological target: Gal4S(b1-4)GlcNAc
Procedure, shortened: as §1

Gal4S6S(b1-4)GlcNAc = biological target: Gal4S6S(b1-4)GlcNAc
Procedure, shortened: as §1

Gal6P(b1-4)GlcNAc = biological target: Gal6P(b1-4)GlcNAc
Procedure, shortened: as §1

Gal6S(b1-3)GlcNAc = biological target: Gal6S(b1-3)GlcNAc
Procedure, shortened: as §1

Gal6S(b1-3)GlcNAc6S = biological target: Gal6S(b1-3)GlcNAc6S
Procedure, shortened: as §1

Gal6S(b1-4)Glc = biological target: Gal6S(b1-4)Glc
Procedure, shortened: as §1

Gal6S(b1-4)Glc6S = biological target: Gal6S(b1-4)Glc6S
Procedure, shortened: as §1

Gal6S(b1-4)GlcNAc = biological target: Gal6S(b1-4)GlcNAc
Procedure, shortened: as §1

Gal6S(b1-4)GlcNAc6S = biological target: Gal6S(b1-4)GlcNAc6S
Procedure, shortened: as §1

GalNAc(a1-3)Gal = biological target: GalNAc(a1-3)Gal
Procedure, shortened: as §1

GalNAc(a1-3)GalNAc = biological target: GalNAc(a1-3)GalNAc
Procedure, shortened: as §1

[15] = biological target: GalNAc(a1-3)GalNAc(b1-3)Gal(a1-4)Gal(b1-4)Glc
Procedure, shortened: as §1

[16] = biological target: GalNAc(a1-3)GalNAc(b1-3)Gal(a1-4)Gal(b1-4)GlcNAc
Procedure, shortened: as §1

GalNAc(b1-3)Gal = biological target: GalNAc(b1-3)Gal
Procedure, shortened: as §1

[17] = biological target: GalNAc(b1-3)Gal(a1-4)Gal(b1-4)GlcNAc
Procedure, shortened: as §1

[18] = biological target: GalNAc(b1-3)Gal(a1-4)Gal(b1-4)GlcNAc(b1-3)Gal(b1-4)Glc
Procedure, shortened: as §1

[19] = biological target: GalNAc(b1-3)Gal(a1-6)Gal(b1-4)Glc
Procedure, shortened: as §1

GalNAc(b1-3)GalNAc = biological target: GalNAc(b1-3)GalNAc
Procedure, shortened: as §1

GalNAc(b1-3)GlcNAc = biological target: GalNAc(b1-3)GlcNAc
Procedure, shortened: as §1

GalNAc(b1-4)Gal(b1-4)Glc = biological target: GalNAc(b1-4)Gal(b1-4)Glc
Procedure, shortened: as §1

GalNAc(b1-4)GlcNAc = biological target: GalNAc(b1-4)GlcNAc
Procedure, shortened: as §1

B1: Thrombomodulin (Mus musculus) (protein)
chain: ALAKLQPTGSQCVEHECFALFQGPATFLDASQACQRLQGHLMTVRSSVAADVISLLLSQSSMDLGPWIGLQLPQGCDDPVHLGPLRGFQWVTGDNHTSYSRWARPNDQTAPLCGPLCVTVSTATEAAPGEPAWEEKPCETETQGFLCEFYFTASC
glycan array binding signal (z-score) [1]: -0.053
glycan array binding signal (z-score) [2]: 0.126
glycan array binding signal (z-score) [3]: -0.151
glycan array binding signal (z-score) [4]: -0.205
glycan array binding signal (z-score) [5]: -0.247
glycan array binding signal (z-score) [6]: -0.029
glycan array binding signal (z-score) [7]: -0.219
glycan array binding signal (z-score) [8]: 0.062
glycan array binding signal (z-score) [9]: -0.326
glycan array binding signal (z-score) [10]: -0.307
glycan array binding signal (z-score) (Gal(b1-4)GlcNAc6P): -0.055
glycan array binding signal (z-score) (Gal(b1-6)Gal): -0.119
glycan array binding signal (z-score) (Gal3S(b1-3)GalNAc): 0.065
glycan array binding signal (z-score) (Gal3S(b1-3)GlcNAc): -0.007
glycan array binding signal (z-score) [11]: -0.25
glycan array binding signal (z-score) (Gal3S(b1-4)Glc): 0.348
glycan array binding signal (z-score) (Gal3S(b1-4)Glc6S): -0.028
glycan array binding signal (z-score) (Gal3S(b1-4)GlcNAc): -0.079
glycan array binding signal (z-score) [12]: 0.12
glycan array binding signal (z-score) [13]: -0.174
glycan array binding signal (z-score) [14]: 0.146
glycan array binding signal (z-score) (Gal3S4S(b1-4)GlcNAc): -0.106
glycan array binding signal (z-score) (Gal3S6S(b1-4)GlcNAc): -0.189
glycan array binding signal (z-score) (Gal3S6S(b1-4)GlcNAc6S): 0.01
glycan array binding signal (z-score) (Gal4S(b1-4)GlcNAc): -0.066
glycan array binding signal (z-score) (Gal4S6S(b1-4)GlcNAc): 0.303
glycan array binding signal (z-score) (Gal6P(b1-4)GlcNAc): -0.432
glycan array binding signal (z-score) (Gal6S(b1-3)GlcNAc): -0.18
glycan array binding signal (z-score) (Gal6S(b1-3)GlcNAc6S): -0.035
glycan array binding signal (z-score) (Gal6S(b1-4)Glc): -0.113
glycan array binding signal (z-score) (Gal6S(b1-4)Glc6S): 0.023
glycan array binding signal (z-score) (Gal6S(b1-4)GlcNAc): 0.002
glycan array binding signal (z-score) (Gal6S(b1-4)GlcNAc6S): -0.283
glycan array binding signal (z-score) (GalNAc(a1-3)Gal): 0.15
glycan array binding signal (z-score) (GalNAc(a1-3)GalNAc): -0.213
glycan array binding signal (z-score) [15]: -0.248
glycan array binding signal (z-score) [16]: 0.145
glycan array binding signal (z-score) (GalNAc(b1-3)Gal): -0.296
glycan array binding signal (z-score) [17]: -0.379
glycan array binding signal (z-score) [18]: -0.108
glycan array binding signal (z-score) [19]: -0.441
glycan array binding signal (z-score) (GalNAc(b1-3)GalNAc): -0.316
glycan array binding signal (z-score) (GalNAc(b1-3)GlcNAc): -0.37
glycan array binding signal (z-score) (GalNAc(b1-4)Gal(b1-4)Glc): -0.054
glycan array binding signal (z-score) (GalNAc(b1-4)GlcNAc): 0.33
